# From ChEMBL document CHEMBL1201862, “PubChem BioAssay data set” (2004)
#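 Cultured in 96-well plates, cells were exposed to test compound for 48 hours across five concentrations. The concentration for 50% growth inhibition is given as GI50.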 Activity calls are given as the source filed them. Cut-off read from the data, not from the text of the source: active = GI50 up to about 1.1 µM and inactive = higher.
# Tests used:
# Test in all cases: NCI-60 cell line screen, 48 h
# [1] = system: SNB-19
# [2] = system: SR
# [3] = system: HCT-116
# [4] = system: SK-MEL-28
# [5] = system: U-251
# [6] = system: HT-29
# [7] = system: SF-268
# [8] = system: CCRF-CEM
# [9] = system: M14
# [10] = system: ACHN
# [11] = system: Hs-578T
# [12] = system: UACC-257
# [13] = system: MDA-N
# [14] = system: Malme-3M
# [15] = system: UACC-62
# [16] = system: PC-3
# [17] = system: COLO 205
# [18] = system: SK-MEL-2
# [19] = system: SF-295
# [20] = system: MDA-MB-435
# [21] = system: BT-549
# [22] = system: A549
# [23] = system: T47D
# [24] = system: TK-10
# [25] = system: K562
# [26] = system: RXF 393
# [27] = system: SNB-75
# [28] = system: HOP-92
# [29] = system: DU-145
# [30] = system: KM12
# [31] = system: IGROV-1
# [32] = system: 786-0
# [33] = system: UO-31
# [34] = system: NCI/ADR-RES
# [35] = system: CAKI-1
# [36] = system: SN12C
# [37] = system: NCI-H23
# [38] = system: OVCAR-4
# [39] = system: SF-539
# [40] = system: LOX IMVI
# [41] = system: EKVX
# [42] = system: MOLT-4
# [43] = system: SK-MEL-5
# [44] = system: HOP-62
# [45] = system: NCI-H522
# [46] = system: A498
# [47] = system: OVCAR-5
# [48] = system: NCI-H460
# [49] = system: HL-60
# [50] = system: HCC 2998
# [51] = system: RPMI-8226
# [52] = system: OVCAR-8
# [53] = system: OVCAR-3
# [54] = system: MDA-MB-231
# [55] = system: NCI-H226
# [56] = system: SW-620
# [57] = system: SK-OV-3
# [58] = system: MCF7
# [59] = system: HCT-15
smiles,measurement,setting,value
COc1cccc2c1NC(=O)Cc1c-2[nH]c2ccc(Br)cc12,GI50,[1],inactive: 17.5 µM
same,GI50,[2],inactive: 33.4 µM
same,GI50,[3],inactive: 9.71 µM
same,GI50,[4],inactive: 41 µM
same,GI50,[5],inactive: 37.2 µM
same,GI50,[6],inactive: 9.18 µM
same,GI50,[7],inactive: 19.3 µM
same,GI50,[8],inactive: > 100 µM
same,GI50,[9],inactive: 42.8 µM
same,GI50,[10],inactive: 14.2 µM
same,GI50,[11],inactive: 48.9 µM
same,GI50,[12],inactive: 8.38 µM
same,GI50,[13],inactive: 28.4 µM
same,GI50,[14],inactive: 11.8 µM
same,GI50,[15],inactive: 30.5 µM
same,GI50,[16],inactive: 13.3 µM
same,GI50,[17],inactive: > 100 µM
same,GI50,[18],inactive: 28.2 µM
same,GI50,[19],inactive: 14.7 µM
same,GI50,[20],inactive: 61.5 µM
same,GI50,[21],inactive: 24.1 µM
same,GI50,[22],inactive: 8.22 µM
same,GI50,[23],inactive: 9.33 µM
same,GI50,[24],inactive: 20 µM
same,GI50,[25],inactive: 6.58 µM
same,GI50,[26],inactive: 20.3 µM
same,GI50,[27],inactive: 27.4 µM
same,GI50,[28],inactive: 55.8 µM
same,GI50,[29],inactive: 13.8 µM
same,GI50,[30],inactive: 28.4 µM
same,GI50,[31],inactive: 25.6 µM
same,GI50,[32],inactive: 4.04 µM
same,GI50,[33],inactive: 18 µM
same,GI50,[34],inactive: 6.62 µM
same,GI50,[35],inactive: 25.9 µM
same,GI50,[36],inactive: 55 µM
same,GI50,[37],inactive: 43 µM
same,GI50,[38],inactive: 10.4 µM
same,GI50,[39],inactive: 31 µM
same,GI50,[40],inactive: 62.1 µM
same,GI50,[41],inactive: 24.2 µM
same,GI50,[42],inactive: 8.49 µM
same,GI50,[43],inactive: 30.5 µM
same,GI50,[44],inactive: 8.65 µM
same,GI50,[45],inactive: 27.5 µM
same,GI50,[46],inactive: 44.4 µM
same,GI50,[47],inactive: 29.6 µM
same,GI50,[48],inactive: 14.6 µM
same,GI50,[49],inactive: 2.64 µM
same,GI50,[50],inactive: 7.31 µM
same,GI50,[51],inactive: 23.7 µM
same,GI50,[52],inactive: 12 µM
same,GI50,[53],inactive: 8.81 µM
same,GI50,[54],inactive: 65.2 µM
same,GI50,[55],inactive: 30.1 µM
same,GI50,[56],inactive: 75.9 µM
same,GI50,[57],inactive: 23.2 µM
same,GI50,[58],inactive: 6.05 µM
same,GI50,[59],28.7 µM
